From publication PMC4729902
Results are given in words; binding and its absence hold for the method and conditions named. In cells and extracts the contact can be indirect. Some entries that bind do so weakly or less than the wild type. Where a sequence is shown, tags or fusion partners need not be part of it.

Target: T1, FLAG-tagged MEIOC complete protein (mouse) (UniProt A2AG06)
T1 sequence: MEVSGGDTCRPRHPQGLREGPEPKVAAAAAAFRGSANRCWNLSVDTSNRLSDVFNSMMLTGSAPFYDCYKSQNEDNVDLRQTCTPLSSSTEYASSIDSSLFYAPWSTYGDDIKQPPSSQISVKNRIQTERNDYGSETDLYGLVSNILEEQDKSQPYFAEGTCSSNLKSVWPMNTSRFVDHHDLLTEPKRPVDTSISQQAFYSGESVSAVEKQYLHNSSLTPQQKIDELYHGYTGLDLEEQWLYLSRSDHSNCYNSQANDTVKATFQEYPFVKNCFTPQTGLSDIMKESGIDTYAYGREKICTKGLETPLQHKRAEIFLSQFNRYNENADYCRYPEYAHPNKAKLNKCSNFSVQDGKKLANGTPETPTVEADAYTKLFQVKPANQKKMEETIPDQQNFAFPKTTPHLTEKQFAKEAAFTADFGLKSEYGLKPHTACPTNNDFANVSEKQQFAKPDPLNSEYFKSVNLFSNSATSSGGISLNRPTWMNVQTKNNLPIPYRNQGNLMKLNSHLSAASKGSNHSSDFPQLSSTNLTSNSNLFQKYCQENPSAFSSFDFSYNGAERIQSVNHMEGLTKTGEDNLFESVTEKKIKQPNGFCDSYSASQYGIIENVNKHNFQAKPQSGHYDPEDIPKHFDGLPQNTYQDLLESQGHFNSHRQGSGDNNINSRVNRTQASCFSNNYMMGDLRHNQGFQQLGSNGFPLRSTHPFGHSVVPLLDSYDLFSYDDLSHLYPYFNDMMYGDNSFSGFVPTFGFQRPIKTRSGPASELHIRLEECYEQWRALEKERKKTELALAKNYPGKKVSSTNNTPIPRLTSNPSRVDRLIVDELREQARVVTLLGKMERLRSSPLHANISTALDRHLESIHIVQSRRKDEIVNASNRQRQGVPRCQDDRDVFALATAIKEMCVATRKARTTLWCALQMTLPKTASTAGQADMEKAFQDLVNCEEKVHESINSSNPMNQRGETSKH
Assay: co-IP; HEK-293 cells overexpressing FLAG-tagged MEIOC or deletion mutants, pre-treated 2 h with 10 μM MG-132; IP with anti-FLAG M2 magnetic beads, western blot with anti-FLAG and anti-YTHDC2

B1: YTHDC2, in HEK-293 cells (protein, UniProt Q9H6S0 1-1430)
chain: MSRPSSVSPRQPAPGGGGGGGPSPCGPGGGGRAKGLKDIRIDEEVKIAVNIALERFRYGDQREMEFPSSLTSTERAFIHRLSQSLGLVSKSKGKGANRYLTVKKKDGSETAHAMMTCNLTHNTKHAVRSLIQRFPVTNKERTELLPKTERGNVFAVEAENREMSKTSGRLNNGIPQIPVKRGESEFDSFRQSLPVFEKQEEIVKIIKENKVVLIVGETGSGKTTQIPQFLLDDCFKNGIPCRIFCTQPRRLAAIAVAERVAAERRERIGQTIGYQIRLESRVSPKTLLTFCTNGVLLRTLMAGDSTLSTVTHVIVDEVHERDRFSDFLLTKLRDLLQKHPTLKLILSSAALDVNLFIRYFGSCPVIYIQGRPFEVKEMFLEDILRTTGYTNKEMLKYKKEKQQEEKQQTTLTEWYSAQENSFKPESQRQRTVLNVTDEYDLLDDGGDAVFSQLTEKDVNCLEPWLIKEMDACLSDIWLHKDIDAFAQVFHLILTENVSVDYRHSETSATALMVAAGRGFASQVEQLISMGANVHSKASNGWMALDWAKHFGQTEIVDLLESYSATLEFGNLDESSLVQTNGSDLSAEDRELLKAYHHSFDDEKVDLDLIMHLLYNICHSCDAGAVLIFLPGYDEIVGLRDRILFDDKRFADSTHRYQVFMLHSNMQTSDQKKVLKNPPAGVRKIILSTNIAETSITVNDVVFVIDSGKVKEKSFDALNFVTMLKMVWISKASAIQRKGRAGRCRPGICFRLFSRLRFQNMLEFQTPELLRMPLQELCLHTKLLAPVNCPIADFLMKAPEPPPALIVRNAVQMLKTIDAMDTWEDLTELGYHLADLPVEPHLGKMVLCAVVLKCLDPILTIACTLAYRDPFVLPTQASQKRAAMLCRKRFTAGAFSDHMALLRAFQAWQKARSDGWERAFCEKNFLSQATMEIIIGMRTQLLGQLRASGFVRARGGGDIRDVNTNSENWAVVKAALVAGMYPNLVHVDRENLVLTGPKEKKVRFHPASVLSQPQYKKIPPANGQAAAIKALPTDWLIYDEMTRAHRIANIRCCSAVTPVTILVFCGPARLASNALQEPSSFRVDGIPNDSSDSEMEDKTTANLAALKLDEWLHFTLEPEAASLLLQLRQKWHSLFLRRMRAPSKPWSQVDEATIRAIIAVLSTEEQSAGLQQPSGIGQRPRPMSSEELPLASSWRSNNSRKSSADTEFSDECTTAERVLMKSPSPALHPPQKYKDRGILHPKRGTEDRSDQSSLKSTDSSSYPSPCASPSPPSSGKGSKSPSPRPNMPVRYFIMKSSNLRNLEISQQKGIWSTTPSNERKLNRAFWESSIVYLVFSVQGSGHFQGFSRMSSEIGREKSQDWGSAGLGGVFKVEWIRKESLPFQFAHHLLNPWNDNKKVQISRDGQELEPLVGEQLLQLWERLPLGEKNTTD
binding: binds
